Out of some 150,000 compounds screened, about 540 (0.36%) showed an effect of 50% or more. This is one part of the list.

The assay deals with Plasmodium falciparum. Kind of assay: Primary screen in NF54 nanoGlo assay, in single point, at 2uM, 72h; a lower Z score goes with more inhibition. The assay is classed as functional, Erythrocyte. As to conditions: timepoint 72 hour.
Take `CCOC(=O)C1CCN(C(=O)COC(=O)c2cc(-c3ccc(Cl)c(Cl)c3Cl)nc3ccccc23)CC1`: the % Inhibition (in general, the relative decrease from the control value, in per cent) is 14% and the Z score is -1.59.
The corresponding values for `Cc1ccc(C(=O)NCc2nc3cc(Cl)ccc3s2)c(=O)[nH]1` are -15% and 1.4.
The corresponding values for `CC(C)CN(CC(=O)N(Cc1ccc(F)cc1)C1CCN(C(=O)c2cccc(F)c2)CC1)S(=O)(=O)c1ccc(Cl)cc1` are -9% and 1.67.
On to `CC1CN(Cc2ncnn2C(C)(C)C)CC(c2ccc(F)cc2)O1` (stereo not given), for which the “% Inhibition” value is on record as 3% and the Z score is given as -0.54.
The corresponding values for `Cc1cc(C(=O)NCCn2ccnc2)c(C)s1` are -5% and 0.67.
The corresponding values for `C[C@H](OC(=O)c1ccc2nc(N)sc2c1)C(=O)N1CCOCC1` are -5% and 0.65.
Turning to `COc1ccc(Cn2nccc2NC(=O)NC23CC2COC3(C)C)c(OC)c1` (stereo not given), the “% Inhibition” value came out at 0% and the Z score was found to be 0.04.
The corresponding values for `Cc1cc([C@]2(C)NC(=O)N(Cc3nnc(C4CC4)o3)C2=O)c(C)o1` are -12% and 1.01.
The corresponding values for `COc1ccc(CNC2(C(=O)N3CCOCC3)CCCCC2)c(C)c1` are -8% and 1.28.
The corresponding values for `Cc1ccccc1N1CCN(C(=O)[C@H]2CCC(=O)N(CCc3ccccc3)C2)CC1` are -3% and 0.43.
On to `CC1CC(C(=O)NC(Cc2cccc3ccccc23)C(=O)O)CCO1` (stereo not given), for which the “% Inhibition” value is -8% and the Z score is reported as 1.49.
The corresponding values for `CN1CCC2C(CCCN2C(=O)NCC2CC=CCC2)C1` (stereo not given) are -11% and 1.
As to `CC(C)(C)c1nnc([C@H]2CCN(C(=O)C3CCCCC3)C2)o1`, the “% Inhibition” value turned out to be 32% and the Z score was -3.57.
The corresponding values for `CCCC(=O)N1CC(OCc2ccc(F)cc2)C1` are -9% and 1.39.
As to `CCn1nc(C)cc1-c1cccc2nsnc12`, the “% Inhibition” value is recorded as -17% and the Z score was 2.67.
The corresponding values for `CN(CCCc1nccn1C)c1cc([C@H]2CCOC2)nc(N2CC(O)C2)n1` are -21% and 2.7.
The corresponding values for `COc1ccc(Br)c(CC(=O)NCc2noc(C)n2)c1` are -11% and 2.1.
Take `CC(C)(C)OC(=O)N1CC(CCN2CCC=C(F)C2)C1`: the “% Inhibition” value is -13% and the Z score was 1.24.
The corresponding values for `Cc1nc2cc(N(C)C(=O)c3cc(C#N)c[nH]3)ccc2[nH]1` are 11% and -1.24.
For the compound `CCc1nnc(N2CCC(c3ncncc3C)CC2)o1`, the “% Inhibition” value is given as 11% and the Z score is -1.95.
The corresponding values for `O=C(NCc1nnc2n1CCC2)c1ccccc1C(=O)c1ccc(Cl)cc1` are -16% and 2.19.
Take `Cn1cnnc1CN1CCc2sccc2C1`: the “% Inhibition” value is on record as 8% and the Z score is -1.07.
As to `Cc1nc(-c2cc(S(=O)(=O)Nc3cccc(F)c3)cn2C)sc1C(=O)N1CCOCC1`, the “% Inhibition” value is 6% and the Z score was -0.66.
The corresponding values for `COC[C@H]1CCN1C(=O)c1ccncc1F` are -15% and 1.25.
The corresponding values for `CC(C)CC1(CNC(=O)COCc2nncn2C)CC1` are 0% and 0.04.
The corresponding values for `CCO[C@H]1C[C@@H](NC(=O)c2ccc(-c3nnc(C)[nH]3)cc2)C1` are -14% and 2.56.
Take `CCn1cc(C2CCN(C(=O)NCc3cscn3)CC2)cn1`: the “% Inhibition” value came out at 30% and the Z score is recorded as -3.43.
The corresponding values for `O=C(NC1CCCS(=O)(=O)C1)C1CC1c1cccc(F)c1F` (stereo not given) are -10% and 1.11.
Take `CC(Cc1cccc(F)c1)C(=O)NC1CCN(C(N)=O)C1` (stereo not given): the “% Inhibition” value is -12% and the Z score is on record as 2.24.
The corresponding values for `N#CCC(=O)N[C@H](Cc1cccc(Br)c1)CC1CC1` are 6% and -0.61.
The corresponding values for `CN(C)c1cccc(S(=O)(=O)NC2(C(F)(F)F)CCOCC2)c1` are -4% and 0.54.
`Cc1ccsc1-c1nc(CN2CCN(S(N)(=O)=O)CC2)c(C)o1`: the “% Inhibition” value is on record as -7% and the Z score is given as 0.94.
Take `CCOC(=O)NC[C@H](O)c1ccc(N(C)C)cc1`: the “% Inhibition” value is given as -13% and the Z score turned out to be 1.71.
For `Nc1nc(N)c2nc(-c3ccccc3-c3ccc(Cl)cc3)cnc2n1`, the “% Inhibition” value worked out at 3% and the Z score is on record as -0.36.
The corresponding values for `Cn1cnn(CCOCC(F)(F)C(F)(F)F)c1=O` are -8% and 0.87.
For the compound `CCc1noc(CN2C[C@@H]3CC[C@H]2CN(C2CCOCC2)C3)n1`, the “% Inhibition” value is -2% and the Z score is 0.36.
The corresponding values for `CCS(=O)(=O)N(Cc1cccc(OCCN2CCCCC2)c1)C1CC1` are -2% and 0.25.
For `C[C@@H](Cn1cccn1)Nc1nc(-c2ccccc2)nc2c1CCNCC2`, the “% Inhibition” value was -1% and the Z score is recorded as 0.14.
The corresponding values for `CN(C)c1ccc(C(=O)N[C@H]2C[C@H]3C(=O)NC[C@@H](CCC(=O)NCc4ccccc4)N3C2)cc1` are 0% and 0.07.
Consider `O=C([C@@H]1NCc2ncncc21)N1CCN(c2ccc(F)cc2)CC1`, for which the “% Inhibition” value is recorded as 4% and the Z score was -0.54.
As to `O=C(CS(=O)(=O)c1ccc(F)cc1F)NCc1ccco1`, the “% Inhibition” value is on record as -16% and the Z score was found to be 2.8.
On to `O=C(c1ccc2cc[nH]c2c1)N1CCC(N2CCC(Oc3ccccc3F)CC2)CC1`, for which the “% Inhibition” value is 16% and the Z score is reported as -2.63.
The corresponding values for `CCN1CCC[C@@H]1CNC(=O)c1nn(-c2ccc(OC)cc2OC)c(=O)c2ccccc12` are 17% and -1.96.
The corresponding values for `CCOCc1nc(-c2c(C)ncc3c2CCN(Cc2[nH]cnc2C)C3)no1` are -4% and 0.63.
As for `CO[C@@]1(C(=O)Nc2cnc3c(Br)cccn23)CCOC1`, the “% Inhibition” value amounted to 27% and the Z score is -3.1.
The corresponding values for `CC1C(=O)C(C(=O)Nc2ccccc2F)C(=O)N1Cc1ccccc1` (stereo not given) are 7% and -1.24.
`CCCCN1CCN([C@@H](C)C(=O)NC2CCCC2)CC1=O`: the “% Inhibition” value is -10% and the Z score worked out at 1.16.
Turning to `O=C(Nc1ccccc1OCCOc1ccccc1)[C@H]1CC12CCNCC2`, the “% Inhibition” value is -5% and the Z score turned out to be 0.93.
With `CC[C@]1(O)CCN(Cc2cc(=O)c3cccc(Cl)c3[nH]2)C[C@@H]1O`, the “% Inhibition” value is recorded as -3% and the Z score is given as 0.45.
As for `O=C(Cn1[nH]c2ccccc2c1=O)N1CCCCCCC1`, the “% Inhibition” value is -15% and the Z score worked out at 2.54.
On to `COc1ccc(C)cc1NC(=O)OCC(F)(F)F`, for which the “% Inhibition” value was -8% and the Z score is 1.29.
For the compound `CC(C)NC(=O)c1nc(-n2cnnc2)ccc1Br`, the “% Inhibition” value is on record as 0% and the Z score is on record as -0.06.
For the compound `Cn1cccc1CNC(=O)Nc1cccc(-c2cn3c(n2)CCCC3)c1`, the “% Inhibition” value is recorded as -3% and the Z score is given as 0.48.
The corresponding values for `CN(CC1(C)COC1)C(=O)c1csc2ccccc12` are -5% and 0.73.
The corresponding values for `CCOCCCNC(=O)N1CCN(c2nnc(C)c3c(C)n(-c4ccc(C)cc4)nc23)CC1` are 1% and -0.27.
